# The list shows a part of the results. Binding of human antibodies (heavy:light variable regions, tested as scFv in one mRNA-display pool) to influenza hemagglutinin, with or without the stem antibody CR9114 bound first. Score = (mean enrichment − median) / interquartile range of that screen; higher = more enriched, 0 = typical non-binder. Active = above the paper's cut-off per screen: stems 28; unblocked H1 Solomon Islands 5, H1 Michigan 3, H3 5, H5 19, H7 2.85, both B 5; blocked 9, 7, H5 10, H7 10, B Phuket 10, B Lee 11.5. Scores are scaled within each screen and are no affinities; replicates correlate at about 0.6 to 0.9, and antibodies rare in the pool are noisier.
# B1: K77-1G05 (protein)
# chain 1: EVQLVESGGGVVQPGRSLRLSCAASGFTFSSYSLDWVRQAPGKGLEWVAVISYDGSDKYFADSVKGRFTISRDNSKNTLYLQMNSLRAEDTAVYYCARDSTGYYSFDYWGQGTLVTVSS
# chain 2: QSALTQPASVSGSPGQSITISCTGTSGDVGNYDLVSWYQHHPGKAPKLMIYEGSERPSGVSNRFSGSKSGNTASLTISGLQAEDEADYYCCSYARGGTGVFGTGTKVTVL
# B2: C3-2-3C01 (protein)
# chain 1: VQLLESGGGLVQPGGSLRLSCAASGFTLSSNAMAWVRQVPGKGLQWVSGIGGIGGSTYYADSVKGRFTMSRDNSRNTLYLQMNSLRVEDTAVYYCAKGVGRIFMVRGFYFDYWGQGALVTVSS
# chain 2: DIQMTQSPSPLSASVGDRVTITCRASQSITSYLNWYQQRPGKAPKLLIYAASNLQTGVPSRFSGSGSGTDFTLTISSLQPEDFATYYCQQSYSTPHTFGPGTKVDIK
# B3: AG11-2C03 (protein)
# chain 1: VQLQESGPGLVKPSETLSLTCRVSGGSIDGDTYYWGWVRQPPGKGPEWIGSMSPNGITYYGPSLKSRVTMSVDSSLKSFSLRMTSVTTTDTAVYYCARDRDIVSRGGFDNWGRGTLVTVSS
# chain 2: DIQMTQSPSSLSASVGDRVTITCRASQSISHFLNWYQHRPGQAPKLLIYLASTLHSGVPSRFSGSGSGTYFTLTISGLQPEDFATYYCQQSYSNDPYTFGQGTKVEIK
# B4: W85-3B09 (protein)
# chain 1: EVQLLESGGGLVQPGGSLRLSCAASGFTFSDYAMSWVRQAPGKGLEWVAILSGSSGHTYYPDSVKGRFTISRDNSKNTLYLQLTSLRAEDTAVYYCAKGGGQQPTWDGMDVWGQGTTVTVSS
# chain 2: DIQMTQSPSTLSASVGDKVTITCRASQSINRWLAWYQQKPGKAPKLLIYRASSLESGVPSRFSGSGSGTEFTLTISSLQPDDFATYFCQHYEGYSWTFGQGTKVDIK
# B5: 236-14-IgG-1F03 (protein)
# chain 1: QVQLVESGGGVVQPGRSLRLSCAAFGFTFSSFPMHWVRQAPGKGLEWVAVISYDGSNKYYADSVKGRFTISRDNSKNTLYVQMNSLRAEDTAVYYCSRDQGGDYGDYGGGFDYWGQGTLVTVSS
# chain 2: QSVLTQPPSASGTPGQRVTISCSGSSSNIASNTVNWYQQVPGTAPKLLIYSNDVRPSGVPDRFSGSKSGTSASLAISGLQSEDEADHYCAVWDDSLNAYVFGTGTKVTVL
# B6: C2-3-D06 (protein)
# chain 1: VQLQESGPGLVKPSETLSLTCTVSADSISSYFWTWIRQPPGKGLEWIGYIYYSGSTNYNPSLKSRVTISLDTSKRLLSLKLSSVTAADTAVYYCARDSTVFPRIFDSWGQGTLVTVSS
# chain 2: IVMTQSPGTLSVSPGERATLSCRASQSVGSSFLAWYQQKLGQAPRLLIYGVSSRATGVPDRFSGSGSGTDFTLTISRLEPEDFAVYYCQQCGSSPWTFGQGTKVEIK
# Target: Influenza A H1N1 A/Michigan/45/2015 hemagglutinin ectodomain
# Assay: mRNA display binding score; higher = more enriched on the antigen
# Settings: antigen blocked with: 2 µM CR9114 IgG
# Experimental: (§1)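 A pool of natively paired antibodies, displayed as scFv on mRNA, was selected once on antigen-coated beads and sequenced before and after; two replicates.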
row,Binder,mRNA display binding score
1,B1,inactive: -0.384
2,B2,inactive: -0.556
3,B3,inactive: -0.0562
4,B4,inactive: 0.00196
5,B5,active: 224
6,B6,inactive: 0.537

# Same assay, conditions: antigen blocked with: nothing
row,Binder,mRNA display binding score
1,B1,inactive: -0.65
2,B2,inactive: -0.075
3,B3,inactive: 0.0253
4,B4,inactive: -0.403
5,B5,active: 8.46
6,B6,inactive: 0.622

# Target: Influenza A H1N1 A/Solomon Islands/3/2006 hemagglutinin ectodomain
# Assay: as above
# Settings: antigen blocked with: 2 µM CR9114 IgG
# Experimental: as §1
row,Binder,mRNA display binding score
1,B1,inactive: -0.522
2,B2,inactive: -0.362
3,B3,inactive: -0.257
4,B4,inactive: -0.238
5,B5,inactive: 0.272
6,B6,inactive: 0.215

# Same assay, conditions: antigen blocked with: nothing
row,Binder,mRNA display binding score
1,B1,inactive: -0.45
2,B2,inactive: -0.552
3,B3,inactive: -0.156
4,B4,inactive: -0.129
5,B5,inactive: 0.121
6,B6,inactive: 0.181

# Target: Influenza A H3N2 A/Singapore/INFIMH-16-0019/2016 hemagglutinin ectodomain
# Assay: as above
# Settings: antigen blocked with: nothing
# Experimental: as §1
row,Binder,mRNA display binding score
1,B1,inactive: -0.563
2,B2,inactive: -0.317
3,B3,inactive: -0.478
4,B4,inactive: -0.0394
5,B5,inactive: 0.322
6,B6,inactive: 0.126

# Target: Influenza A H5N1 A/Qinghai/1A/2005 hemagglutinin ectodomain
# Assay: as above
# Settings: antigen blocked with: 2 µM CR9114 IgG
# Experimental: as §1
row,Binder,mRNA display binding score
1,B1,inactive: -0.522
2,B2,inactive: -1.02
3,B3,inactive: 3.04
4,B4,inactive: -0.228
5,B5,inactive: 0.0373
6,B6,inactive: 0.355

# Same assay, conditions: antigen blocked with: nothing
row,Binder,mRNA display binding score
1,B1,inactive: -0.452
2,B2,inactive: -0.17
3,B3,inactive: 0.573
4,B4,inactive: -0.263
5,B5,inactive: 0.21
6,B6,inactive: 0.508

# Target: Influenza A H7N9 A/Shanghai/2/2013 hemagglutinin ectodomain
# Assay: as above
# Settings: antigen blocked with: 2 µM CR9114 IgG
# Experimental: as §1
row,Binder,mRNA display binding score
1,B1,inactive: -0.659
2,B2,inactive: 0.824
3,B3,inactive: 2.12
4,B4,inactive: -0.326
5,B5,inactive: -0.413
6,B6,inactive: -0.052

# Same assay, conditions: antigen blocked with: nothing
row,Binder,mRNA display binding score
1,B1,inactive: -0.593
2,B2,inactive: 0.178
3,B3,inactive: -0.199
4,B4,inactive: -0.187
5,B5,inactive: 0.0647
6,B6,inactive: 0.495

# Target: Influenza B/Lee/1940 hemagglutinin ectodomain
# Assay: as above
# Settings: antigen blocked with: 2 µM CR9114 IgG
# Experimental: as §1
row,Binder,mRNA display binding score
1,B1,inactive: -0.131
2,B2,inactive: -0.389
3,B3,inactive: 4.08
4,B4,inactive: -0.353
5,B5,inactive: -0.495
6,B6,inactive: -0.244

# Same assay, conditions: antigen blocked with: nothing
row,Binder,mRNA display binding score
1,B1,inactive: -0.329
2,B2,inactive: -0.357
3,B3,inactive: 2.65
4,B4,inactive: -0.301
5,B5,inactive: -0.203
6,B6,inactive: 0.878

# Target: Influenza B/Phuket/3073/2013 hemagglutinin ectodomain
# Assay: as above
# Settings: antigen blocked with: 2 µM CR9114 IgG
# Experimental: as §1
row,Binder,mRNA display binding score
1,B1,inactive: -0.263
2,B2,inactive: -0.357
3,B3,active: 11.1
4,B4,inactive: -0.294
5,B5,inactive: 0.0379
6,B6,inactive: -0.111

# Same assay, conditions: antigen blocked with: nothing
row,Binder,mRNA display binding score
1,B1,inactive: -0.427
2,B2,inactive: -0.172
3,B3,inactive: 1.91
4,B4,inactive: -0.283
5,B5,inactive: -0.0714
6,B6,inactive: 0.642

# From the supplement of paper PMC11383711
